# PubChem BioAssay AID488969 (Vanderbilt High Throughput Screening Facility, 2010)
# In all, about 110,000 compounds were measured (“z-score”: median about -0.1, highest 2% from about 2 on). The list shows a part of the results. Activity calls are given as the source filed them.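 The calls were made as follows: active = z-score in the third read window above 3 or below -3; inactive = the rest.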
# Biological target: Metabotropic glutamate receptor 8 (Rattus norvegicus) (UniProt P70579)
# Test: mGluR8 Gi/Go-coupled signaling modulation – cell-based, rat, thallium flux, HTS, primary screen (AID 488969)
# Conditions: HEK293 rat mGluR8, GIRK (G protein-gated inwardly rectifying potassium channel) thallium flux, FluoZin2; at 10 µM; stronger effect = higher value; submaximal glutamate (EC20) added with thallium
# Sequence of UniProt P70579 (P70579 whole entry, looked up): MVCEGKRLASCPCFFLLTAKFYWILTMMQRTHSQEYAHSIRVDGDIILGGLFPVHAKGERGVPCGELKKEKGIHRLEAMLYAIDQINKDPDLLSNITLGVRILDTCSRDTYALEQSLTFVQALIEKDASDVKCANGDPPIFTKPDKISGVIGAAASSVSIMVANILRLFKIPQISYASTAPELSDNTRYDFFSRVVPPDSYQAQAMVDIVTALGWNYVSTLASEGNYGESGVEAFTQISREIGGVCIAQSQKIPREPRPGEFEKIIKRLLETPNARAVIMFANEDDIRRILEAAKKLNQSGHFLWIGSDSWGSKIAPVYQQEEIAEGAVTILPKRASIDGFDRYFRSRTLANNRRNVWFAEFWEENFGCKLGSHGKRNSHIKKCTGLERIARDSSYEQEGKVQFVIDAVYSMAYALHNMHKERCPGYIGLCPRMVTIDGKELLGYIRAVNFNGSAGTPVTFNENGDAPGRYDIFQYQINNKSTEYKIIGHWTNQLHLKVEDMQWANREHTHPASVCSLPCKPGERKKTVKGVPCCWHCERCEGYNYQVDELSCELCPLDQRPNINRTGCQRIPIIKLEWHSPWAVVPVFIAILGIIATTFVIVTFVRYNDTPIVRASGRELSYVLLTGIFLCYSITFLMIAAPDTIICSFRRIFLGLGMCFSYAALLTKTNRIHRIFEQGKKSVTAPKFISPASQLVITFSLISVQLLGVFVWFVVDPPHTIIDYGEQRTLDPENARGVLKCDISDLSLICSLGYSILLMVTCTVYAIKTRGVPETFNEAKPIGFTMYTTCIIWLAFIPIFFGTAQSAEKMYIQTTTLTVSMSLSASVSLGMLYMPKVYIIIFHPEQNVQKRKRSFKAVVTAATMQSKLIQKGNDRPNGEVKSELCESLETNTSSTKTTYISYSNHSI
row,Compound,z-score
1,O=C(CS(=O)(=O)c1ccccc1)c1ccc2c(c1)OCCO2,-1.45
2,Cc1cc2ncn(CC(O)COc3cccc(C(=O)O)c3)c2cc1C (stereo not drawn),-0.664
3,CCCCCCCCS(=O)c1sc2nc(C)cc(C)c2c1N (stereo not drawn),0.417
4,CCOC(=O)c1c(N)sc(C(=O)N(C)C)c1CN1CCOCC1,-0.409
5,N#Cc1c(-c2ccc(Cl)cc2)ccn2nc(C3CCCCC3)nc12,-0.0469
6,c1cncc(-c2nnc(SCc3cccc4ccccc34)o2)c1,-0.08
7,COc1cccc(-c2nnc3n2N=C(c2cc(OC)ccc2OC)CS3)c1,-0.616
8,CC1=NCCN1S(=O)(=O)c1ccc(Br)c(C)c1,0.159
9,COc1ccc(C2C(C(=O)N3CCCCC3)c3ccccc3C(=O)N2C)cc1 (stereo not drawn),-0.315
10,CC(c1ccc(F)cc1)n1c(-c2ccc3ccccc3n2)n[nH]c1=S (stereo not drawn),active: 6.84
11,O=C1CCCCCCC1Sc1ccccc1[N+](=O)[O-] (stereo not drawn),-0.12
12,O=C(C1=C(Nc2ccccc2)c2ccccc2S(=O)(=O)N1)c1ccccc1,-0.115
13,CCN(CC)Cc1c(O)ccc2c(=O)c(Oc3ccccc3OC)coc12,-0.345
14,Cc1ccc(-n2nnnc2Sc2nc([N+](=O)[O-])nn2C)c(C)c1,-0.203
15,CCOC(=O)c1ccc(-n2c(N)c(C(=O)NCc3ccco3)sc2=S)cc1,-1.24
16,CC(/C=N/NC(=O)C(O)c1ccccc1)=C\c1ccccc1 (stereo not drawn),-0.196
17,Cc1cccc(C)c1OCC(O)CNC(C)C (stereo not drawn),-0.0305
18,Cc1ccccc1S(=O)(=O)NNC(=O)C(=O)NNc1ccccn1,0.00757
19,CN1CCN(CCCc2c3c(cc4c2CCC4)CCC3)CC1,0.356
20,CCCCSCCCNC(=O)Nc1cccc(OC)c1,-0.211
21,CCCCN(C)S(=O)(=O)c1c(C)[nH]c(=O)[nH]c1=O,-0.321
22,COc1ccc2oc(=O)c(-c3nc4ccccc4o3)cc2c1,-0.0792
23,O=C(N/N=C/c1cccc([N+](=O)[O-])c1)c1ccc2nc[nH]c2c1,-0.363
24,CN1CCN(C(=O)c2cc3c(ccc4ccccc43)oc2=O)CC1,-0.235
25,Cc1ccc(CSc2ncccc2C(=O)O)cc1,-0.255

row,Compound,z-score
1,CCCc1nc2sc3c(c2c(=O)n1N)CCC3,-0.358
2,O=C(/C=C/c1ccc(-c2ccccc2[N+](=O)[O-])o1)c1ccc(F)cc1,0.317
3,O=C(CCn1c(=O)[nH]c2ccsc2c1=O)N1CCN(Cc2ccc3c(c2)OCO3)CC1,-0.248
4,CCCCOc1cccc(-c2nnc(N)s2)c1,-0.361
5,CCC(C)NC(=O)Nc1ccccc1C (stereo not drawn),0.0118
6,O=C(NC(=S)NC1CCSC1=O)c1cccs1 (stereo not drawn),0.494
7,Cc1sc2nc(CSCC(=O)Nc3c(Cl)cccc3Cl)[nH]c(=O)c2c1C,-0.156
8,O=C(COC(=O)C1(c2ccc(F)cc2)CCCC1)N1CCOCC1,-0.0802
9,CC(=O)c1cccc(NC(=O)c2ccc(-c3ccccc3[N+](=O)[O-])o2)c1,-0.15
10,CCCCN(C(=O)CSc1nnc(-c2ccc(OC)cc2)n1CC)c1c(N)n(Cc2ccccc2)c(=O)[nH]c1=O,0.217
11,O=C1CCCN1CN(C(=O)c1ccc2c(c1)OCO2)c1ccc(F)cc1,-0.0977
12,Cn1cc(SCC(=O)Nc2nc3ccccc3s2)c2ccccc21,0.0839
13,O=C(COC(=O)c1ccc(S(=O)(=O)N2CCCC2)cc1)NCc1ccc(Cl)cc1,-0.409
14,Cc1ccccc1-c1nc(CS(=O)(=O)CC(=O)NCCCN2CCCC2)c(C)o1,1.69
15,CSc1nc2ccccc2n1CC(=O)N1CCCCC1,0.207
16,COCCn1c(=NC(=O)c2cc(-c3cccs3)nc3ccccc23)sc2cc(S(N)(=O)=O)ccc21,-0.122
17,CN(C)CCCN1C(=O)c2oc3ccccc3c(=O)c2C1c1cccs1 (stereo not drawn),2.78
18,CCOc1ccc(-c2ccc(/C=C3/C(=N)N4C=CSC4=NC3=O)o2)c([N+](=O)[O-])c1,0.233
19,O=C(O)CCN1C(=O)/C(=C\c2ccc(-c3nc4ccccc4s3)o2)SC1=S,2.49
20,CN=C(Nc1ccc(Cl)cc1)c1cccc(C(F)(F)F)c1,0.181
21,O=C(c1cnn2c(C(F)F)cc(-c3ccccc3)nc12)N1CCN2CCCC2C1 (stereo not drawn),-0.85
22,O=C(CSc1nccn1Cc1ccccc1)Nc1nccs1,-0.379
23,CC(C)Cc1c(O)nc(SCC(=O)Nc2ccc3c(c2)CCC3)[nH]c1=O,-1.43
24,COC(=O)c1ccc(NC(=O)CN2CCN(c3ccccc3)CC2)cc1,-0.224
25,COc1cc(-n2c(C)nc3cc(C(=O)NCCN4CCOCC4)ccc32)cc(OC)c1OC,-0.57

row,Compound,z-score
1,COc1ccc(C)cc1NC(=O)CN1C(=O)c2ccccc2S1(=O)=O,0.152
2,CSc1nnc(Nc2ccccc2C)s1,-0.0316
3,C=CCNc1oc(-c2cccs2)nc1C#N,-0.121
4,O=C(O)C1CSC(c2ccncc2)N1 (stereo not drawn),-0.0727
5,Cc1cc(Cl)cc(Cl)c1OCCCCN(C)C,-0.393
6,COc1ccc(-c2n[nH]c(C)c2-c2ccc(Cl)cc2)c(O)c1OC,-0.612
7,COC(=O)c1cc(C)nc(N)c1C#N,-0.219
8,COc1ccc(C2(CCN)CC(C)N(C)CC2C)cc1 (stereo not drawn),-0.133
9,O=C(O)c1coc2ccccc12,-1.06
10,COc1ccc(/C=N/NC(=O)CCCC(=O)NC2CCCCC2)cc1,-0.054
11,COc1ccc(Cn2c(N)c(S(=O)(=O)c3cccs3)c3nc4ccccc4nc32)cc1,-0.287
12,C/C(=N/NC(=O)CNc1ccc(C)cc1)c1ccc(Cl)cc1,-0.266
13,CCCCn1c(=O)[nH]c(=O)c2c1nc(-c1ccncc1)n2CCOC,-0.277
14,COc1ccc(N(CC(=O)N2CCCCC2)S(=O)(=O)c2ccccc2)c(OC)c1,-0.156
15,O=c1cnnc(NCc2ccccc2)[nH]1,0.139
16,CC(SCc1ccccc1)C(=O)Nc1ccccc1-c1ccccc1 (stereo not drawn),-0.65
17,Cc1onc(-c2ccccc2Cl)c1C(=O)NCCN1CCOCC1,0.0859
18,CC(C)CC(NC(=O)CCl)c1ccccc1 (stereo not drawn),-0.113
19,O=C(NCc1ccco1)c1ccc(CS(=O)(=O)c2cccc(C(F)(F)F)c2)o1,0.295
20,COCCNC(=O)CSc1nc2cc3c(cc2c(=O)n1Cc1ccco1)OCO3,0.316
21,CCS(=O)(=O)c1ccc2oc(SCC(=O)NC34CC5CC(CC(C5)C3)C4)nc2c1,0.00733
22,CCOc1cc(/C=C2/NC(=S)NC2=O)ccc1OCc1ccc([N+](=O)[O-])cc1,-0.0197
23,O=C(CN(Cc1ccccc1)S(=O)(=O)c1ccc(S(=O)(=O)N2CCOCC2)cc1)Nc1ccccc1,-0.068
